Experimental findings from publication PMC11528044 (Nature Communications, 2024) are described below.

Experiment [1] deals with T1, LdCYP5122A1 (Leishmania donovani, UniProt A0A3S7X0B6).
T1 sequence (A0A3S7X0B6 61-592): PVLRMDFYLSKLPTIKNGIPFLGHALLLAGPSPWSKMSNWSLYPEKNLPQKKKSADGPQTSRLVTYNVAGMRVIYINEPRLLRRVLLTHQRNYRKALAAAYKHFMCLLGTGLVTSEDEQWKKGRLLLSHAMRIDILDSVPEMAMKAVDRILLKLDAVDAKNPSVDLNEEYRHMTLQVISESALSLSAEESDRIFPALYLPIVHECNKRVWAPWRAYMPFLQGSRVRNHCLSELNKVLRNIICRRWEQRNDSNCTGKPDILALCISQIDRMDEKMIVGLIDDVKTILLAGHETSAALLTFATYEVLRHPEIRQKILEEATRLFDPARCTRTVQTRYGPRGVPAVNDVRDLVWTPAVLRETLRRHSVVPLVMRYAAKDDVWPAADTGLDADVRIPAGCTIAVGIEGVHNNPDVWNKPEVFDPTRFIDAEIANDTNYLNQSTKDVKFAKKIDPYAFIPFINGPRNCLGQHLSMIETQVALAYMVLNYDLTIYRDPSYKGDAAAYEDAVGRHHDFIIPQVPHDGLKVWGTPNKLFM

Experiment [2] deals with L. donovani LV82 promastigotes. The experiment can be described thus: microbe, parasite or virus in culture. Particulars: Leishmania donovani, 72 h, read-out: EC50 (L. donovani).
The target in experiment [3] is T2, LdCYP51 (Leishmania donovani, UniProt A0A3S7WRS7).
The target of experiment [4] is T1, LdCYP5122A1. The experiment in a line: biochemical.
The target in experiment [5] is T2, LdCYP51. The experiment can be described thus: biochemical.

T2 sequence (A0A3S7WRS7 32-480): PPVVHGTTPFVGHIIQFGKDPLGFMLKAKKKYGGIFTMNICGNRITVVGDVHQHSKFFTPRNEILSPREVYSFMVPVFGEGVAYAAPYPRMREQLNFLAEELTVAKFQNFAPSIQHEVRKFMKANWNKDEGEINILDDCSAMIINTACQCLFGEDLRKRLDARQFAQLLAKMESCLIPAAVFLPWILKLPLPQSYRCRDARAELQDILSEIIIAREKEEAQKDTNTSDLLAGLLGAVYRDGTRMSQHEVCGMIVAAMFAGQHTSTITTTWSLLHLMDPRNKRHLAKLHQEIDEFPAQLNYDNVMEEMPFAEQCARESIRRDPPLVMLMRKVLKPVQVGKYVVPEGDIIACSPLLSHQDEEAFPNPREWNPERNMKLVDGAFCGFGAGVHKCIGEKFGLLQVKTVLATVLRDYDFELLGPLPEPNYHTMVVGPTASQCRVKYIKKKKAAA

As usually defined, the EC50 is the concentration that produces a half-maximal response. Consider `Clc1ccc(COC(Cn2ccnc2)c2ccc(Cl)cc2Cl)cc1` (stereo not drawn) [Econazole], for which the “SI (selectivity index) = IC50 against LdCYP5122A1/IC50 against LdCYP51” value (from here on “SI (selectivity index) = IC50”) on LdCYP5122A1 [1] was found to be 10. For the same compound, in experiment [2], the EC50 amounted to 9.4 ± 0.3 µM.

In the case of `Clc1ccccc1C(c1ccccc1)(c1ccccc1)n1ccnc1` [Clotrimazole], the “Selectivity for CYP51 over CYP5122A1” value at LdCYP51 [3] is 3.8 fold. At LdCYP5122A1 [1], the “SI (selectivity index) = IC50” value is reported as 3.8. For the same compound, the EC50 in experiment [2] was determined as 5 ± 0.1 µM.

A word on the IC50: it is the concentration that gives 50% inhibition. A lower IC50 goes with inhibition by little substance. For the compound `Clc1ccc(CO/N=C(\Cn2ccnc2)c2ccc(Cl)cc2Cl)c(Cl)c1` [Oxiconazole], the IC50 stood at 0.62 ± 0.02 µM on LdCYP5122A1 [4] and 0.032 ± 0.002 µM on LdCYP51 [5]. For the same compound, at LdCYP5122A1 [1], the “SI (selectivity index) = IC50” value was determined as 20. In experiment [2], the concentration for a half-maximal effect (EC50) was 3.9 ± 0.4 µM.

On to `Clc1ccc(COC(Cn2ccnc2)c2ccc(Cl)cc2Cl)c(Cl)c1` (stereo not drawn) [Miconazole], for which the “SI (selectivity index) = IC50” value on LdCYP5122A1 [1] is listed as 19. Further, in experiment [2], the EC50 turned out to be 7.6 ± 0.7 µM.

Regarding `Clc1ccc(CSC(Cn2ccnc2)c2ccc(Cl)cc2Cl)cc1` (stereo not drawn) [Sulconazole], the 50% inhibitory concentration (IC50) at LdCYP5122A1 [4] came out at 0.38 ± 0.06 µM; against LdCYP51 [5], 0.064 ± 0.003 µM. Also, the “SI (selectivity index) = IC50” value on LdCYP5122A1 [1] is 5.9. The EC50 in experiment [2] was found to be 7.4 ± 0.6 µM.
